Paper PMC3934934, “The Self-Interaction of a Nodavirus Replicase Is Enhanced by Mitochondrial Membrane Lipids” (PLoS ONE, 2014)
These are yes or no findings as the source states them, for the method shown. In cells and extracts the contact can be indirect. Some binding calls cover weakened binding; strength is not graded here. For part of these data: Tags and fused reporters may be left off the sequences shown.

Experiments:
[1] = target: MBP-protA fragment aa 840–1014 (Wuhan nodavirus (WhNV)) (UniProt Q3KSM3); experiment: pull-down; only the target purified
[2] = target: MBP-protA fragment aa 840–1014 (Wuhan nodavirus (WhNV)) (UniProt Q3KSM3); experiment: pull-down; MBP fusion protein (1 µM) held on amylose resin, His-tagged protein (1 µM) in vitro translated in rabbit reticulocyte lysate; room temperature, 4 hrs; no lipids; Western blot with anti-His; signals given as % of FL to FL protein A self-interaction; only the target purified
[3] = target: MBP-protA fragment aa 660–839 (Wuhan nodavirus (WhNV)) (UniProt Q3KSM3); experiment: pull-down; only the target purified
[4] = target: MBP-protA fragment aa 660–839 (Wuhan nodavirus (WhNV)) (UniProt Q3KSM3); experiment: pull-down; MBP fusion protein (1 µM) held on amylose resin, His-tagged protein (1 µM) in vitro translated in rabbit reticulocyte lysate; room temperature, 4 hrs; no lipids; Western blot with anti-His; signals given as % of FL to FL protein A self-interaction; only the target purified
[5] = target: T1, MBP-tagged full-length (FL) WhNV protein A (Wuhan nodavirus (WhNV)) (UniProt Q3KSM3); experiment: as above
T1 sequence: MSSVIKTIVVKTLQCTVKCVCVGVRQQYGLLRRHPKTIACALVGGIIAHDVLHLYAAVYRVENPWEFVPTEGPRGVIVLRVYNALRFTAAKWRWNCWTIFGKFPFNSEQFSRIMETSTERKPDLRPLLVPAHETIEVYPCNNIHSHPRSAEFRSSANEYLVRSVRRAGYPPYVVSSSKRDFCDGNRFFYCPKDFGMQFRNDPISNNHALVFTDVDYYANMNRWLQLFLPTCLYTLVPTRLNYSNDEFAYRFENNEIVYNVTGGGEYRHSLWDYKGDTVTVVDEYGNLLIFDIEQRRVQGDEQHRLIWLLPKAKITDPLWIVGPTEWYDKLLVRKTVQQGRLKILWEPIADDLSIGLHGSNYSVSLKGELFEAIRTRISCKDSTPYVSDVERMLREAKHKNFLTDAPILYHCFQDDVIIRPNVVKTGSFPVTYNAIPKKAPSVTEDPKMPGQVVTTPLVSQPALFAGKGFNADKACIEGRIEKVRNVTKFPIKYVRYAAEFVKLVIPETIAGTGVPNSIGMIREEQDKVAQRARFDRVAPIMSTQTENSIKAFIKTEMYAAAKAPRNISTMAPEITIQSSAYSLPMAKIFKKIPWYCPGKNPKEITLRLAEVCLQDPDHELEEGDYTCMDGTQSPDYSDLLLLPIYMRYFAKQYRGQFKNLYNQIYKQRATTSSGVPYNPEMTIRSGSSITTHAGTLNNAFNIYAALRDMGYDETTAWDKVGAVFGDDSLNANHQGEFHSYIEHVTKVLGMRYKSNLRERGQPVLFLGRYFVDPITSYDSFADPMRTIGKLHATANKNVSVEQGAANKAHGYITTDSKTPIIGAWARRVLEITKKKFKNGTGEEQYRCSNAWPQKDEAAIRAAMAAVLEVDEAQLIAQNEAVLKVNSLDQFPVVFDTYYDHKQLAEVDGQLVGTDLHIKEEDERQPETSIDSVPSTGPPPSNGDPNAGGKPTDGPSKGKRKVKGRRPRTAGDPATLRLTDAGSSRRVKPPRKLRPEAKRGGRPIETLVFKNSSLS

[6] = target: MBP-protA fragment aa 481–1014 (Wuhan nodavirus (WhNV)) (UniProt Q3KSM3); experiment: as above
[7] = target: MBP-protA fragment aa 255–1014 (Wuhan nodavirus (WhNV)) (UniProt Q3KSM3); experiment: as above
[8] = target: MBP-protA fragment aa 481–839 (Wuhan nodavirus (WhNV)) (UniProt Q3KSM3); experiment: as above
[9] = target: MBP-protA fragment aa 840–1014 (Wuhan nodavirus (WhNV)) (UniProt Q3KSM3); experiment: as above; remark: listed apart in the source
[10] = target: MBP-protA fragment aa 660–839 (Wuhan nodavirus (WhNV)) (UniProt Q3KSM3); experiment: as above; remark: listed apart in the source
[11] = target: MBP-protA fragment aa 660–1014 (Wuhan nodavirus (WhNV)) (UniProt Q3KSM3); experiment: as above
[12] = target: MBP-protA fragment aa 255–839 (Wuhan nodavirus (WhNV)) (UniProt Q3KSM3); experiment: as above
[13] = target: MBP-protA fragment aa 255–659 (Wuhan nodavirus (WhNV)) (UniProt Q3KSM3); experiment: as above
[14] = target: T2, MBP-protA fragment aa 1–254 (Wuhan nodavirus (WhNV)) (UniProt Q3KSM3); experiment: pull-down; only the target purified
T2 sequence: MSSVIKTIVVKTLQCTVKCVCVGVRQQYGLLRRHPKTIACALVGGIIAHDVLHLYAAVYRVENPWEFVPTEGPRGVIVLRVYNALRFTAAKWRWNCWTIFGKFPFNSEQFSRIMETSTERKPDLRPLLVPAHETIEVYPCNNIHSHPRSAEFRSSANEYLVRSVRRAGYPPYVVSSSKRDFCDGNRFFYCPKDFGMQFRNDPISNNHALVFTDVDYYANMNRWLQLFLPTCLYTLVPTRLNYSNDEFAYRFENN

[15] = target: T3, MBP-protA fragment aa 255–480 (Wuhan nodavirus (WhNV)) (UniProt Q3KSM3); experiment: pull-down; only the target purified
T3 sequence: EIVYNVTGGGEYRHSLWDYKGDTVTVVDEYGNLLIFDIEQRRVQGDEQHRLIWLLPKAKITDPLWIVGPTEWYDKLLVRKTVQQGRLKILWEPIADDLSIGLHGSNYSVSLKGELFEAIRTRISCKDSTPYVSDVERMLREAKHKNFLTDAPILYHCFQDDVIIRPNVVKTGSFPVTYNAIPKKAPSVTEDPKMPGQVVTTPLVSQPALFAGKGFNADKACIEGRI

In the case of “His-protA fragment aa 840–1014, in vitro translated (from UniProt Q3KSM3 840-1014) (domain or fragment)”, the binding [1] is reported as “no binding” and the binding [2] is reported as “no binding”.

With “His-protA fragment aa 660–839, in vitro translated (from UniProt Q3KSM3 660-839) (domain or fragment)” the binding [3] was “no binding” and the binding [4] was “no binding”.

B1: His-tagged WhNV protein A, in vitro translated (natural protein)
chain: MSSVIKTIVVKTLQCTVKCVCVGVRQQYGLLRRHPKTIACALVGGIIAHDVLHLYAAVYRVENPWEFVPTEGPRGVIVLRVYNALRFTAAKWRWNCWTIFGKFPFNSEQFSRIMETSTERKPDLRPLLVPAHETIEVYPCNNIHSHPRSAEFRSSANEYLVRSVRRAGYPPYVVSSSKRDFCDGNRFFYCPKDFGMQFRNDPISNNHALVFTDVDYYANMNRWLQLFLPTCLYTLVPTRLNYSNDEFAYRFENNEIVYNVTGGGEYRHSLWDYKGDTVTVVDEYGNLLIFDIEQRRVQGDEQHRLIWLLPKAKITDPLWIVGPTEWYDKLLVRKTVQQGRLKILWEPIADDLSIGLHGSNYSVSLKGELFEAIRTRISCKDSTPYVSDVERMLREAKHKNFLTDAPILYHCFQDDVIIRPNVVKTGSFPVTYNAIPKKAPSVTEDPKMPGQVVTTPLVSQPALFAGKGFNADKACIEGRIEKVRNVTKFPIKYVRYAAEFVKLVIPETIAGTGVPNSIGMIREEQDKVAQRARFDRVAPIMSTQTENSIKAFIKTEMYAAAKAPRNISTMAPEITIQSSAYSLPMAKIFKKIPWYCPGKNPKEITLRLAEVCLQDPDHELEEGDYTCMDGTQSPDYSDLLLLPIYMRYFAKQYRGQFKNLYNQIYKQRATTSSGVPYNPEMTIRSGSSITTHAGTLNNAFNIYAALRDMGYDETTAWDKVGAVFGDDSLNANHQGEFHSYIEHVTKVLGMRYKSNLRERGQPVLFLGRYFVDPITSYDSFADPMRTIGKLHATANKNVSVEQGAANKAHGYITTDSKTPIIGAWARRVLEITKKKFKNGTGEEQYRCSNAWPQKDEAAIRAAMAAVLEVDEAQLIAQNEAVLKVNSLDQFPVVFDTYYDHKQLAEVDGQLVGTDLHIKEEDERQPETSIDSVPSTGPPPSNGDPNAGGKPTDGPSKGKRKVKGRRPRTAGDPATLRLTDAGSSRRVKPPRKLRPEAKRGGRPIETLVFKNSSLS
notes: also called His-protA; FL His-protA; source: in vitro translated in nuclease-treated rabbit reticulocyte lysates
B1 was tested, and the binding [5] was “binds”, the binding [6] was “binds” and the binding [7] was “binds”. For the same molecule, the binding [8] was “binds”, the binding [9] was “no binding (tested: 1 µM)” and the binding [10] was “no binding (tested: 1 µM)”. The binding [11] was “no binding (tested: 1 µM)”, the binding [12] was “binds” and the binding [13] was “binds”.

B2: His-protA fragment aa 481–659, in vitro translated (domain or fragment)
chain: EKVRNVTKFPIKYVRYAAEFVKLVIPETIAGTGVPNSIGMIREEQDKVAQRARFDRVAPIMSTQTENSIKAFIKTEMYAAAKAPRNISTMAPEITIQSSAYSLPMAKIFKKIPWYCPGKNPKEITLRLAEVCLQDPDHELEEGDYTCMDGTQSPDYSDLLLLPIYMRYFAKQYRGQFKN
notes: source: in vitro translated in nuclease-treated rabbit reticulocyte lysates
For B2, the binding [14] was “binds” and the binding [15] was “binds”.

B3: His-protA fragment aa 1–254, in vitro translated (domain or fragment)
chain: MSSVIKTIVVKTLQCTVKCVCVGVRQQYGLLRRHPKTIACALVGGIIAHDVLHLYAAVYRVENPWEFVPTEGPRGVIVLRVYNALRFTAAKWRWNCWTIFGKFPFNSEQFSRIMETSTERKPDLRPLLVPAHETIEVYPCNNIHSHPRSAEFRSSANEYLVRSVRRAGYPPYVVSSSKRDFCDGNRFFYCPKDFGMQFRNDPISNNHALVFTDVDYYANMNRWLQLFLPTCLYTLVPTRLNYSNDEFAYRFENN
notes: also called 1–254 His/protA; wt protein A fragment aa 1–254; source: in vitro translated in nuclease-treated rabbit reticulocyte lysates
In the case of B3, the binding [14] is reported as “binds”.

B4: His-protA fragment aa 255–480, in vitro translated (domain or fragment)
chain: EIVYNVTGGGEYRHSLWDYKGDTVTVVDEYGNLLIFDIEQRRVQGDEQHRLIWLLPKAKITDPLWIVGPTEWYDKLLVRKTVQQGRLKILWEPIADDLSIGLHGSNYSVSLKGELFEAIRTRISCKDSTPYVSDVERMLREAKHKNFLTDAPILYHCFQDDVIIRPNVVKTGSFPVTYNAIPKKAPSVTEDPKMPGQVVTTPLVSQPALFAGKGFNADKACIEGRI
notes: as for B2
B4 was tested, and the binding [14] was “binds” and the binding [15] was “binds”.
